Reference: PubChem BioAssay AID686979 (National Center for Advancing Translational Sciences (NCATS), 2013)
“And” between values parts separate entries of the source, which are not always exact repeats. Equal entries are not always repeated. In all, about 420,000 compounds went through this assay and about 50,000 (12%) were called active. Inconclusive means that the source gave no clear call. Such entries were picked first, then a sample of the others. Calls follow the shape of the dose curve; as a rule, active = well fitted inhibition curve with a large enough effect; inconclusive = small, poorly fitted or top-dose-only effect; inactive = flat fitted curve, though single readings scatter. Where the call is inconclusive, the potency comes from a doubtful curve fit.

Test: qHTS for Inhibitors of human tyrosyl-DNA phosphodiesterase 1 (TDP1): qHTS in cells in presence of CPT; also: nearly all actives have a fitted effect of over 55% in size
Details: chicken DT40 Tdp1-/-;hTDP1 cells + 20 nM CPT, ATP luminescence, 48 h; activity change, negative = growth inhibition: at 46.2 µM (top of the series) unless noted
Outline: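 Chicken DT40 Tdp1-/- cells complemented with human TDP1, 400 cells/well, exposed to compounds plus 20 nM camptothecin for at least 48 h at 37 C; viability read as ATP content by CellTiter-Glo luminescence.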
% is scaled to controls: 0 for no effect and ±100 for the full control effect; potency is read from the fitted curve at half-maximal effect; tags tell the direction and shape of the fitted curve.

| Compound | Potency | activity change, negative = growth inhibition |
| --- | --- | --- |
| CC(C)C(=O)NNC(=O)CN1CCN(c2nc(-c3ccccc3)cs2)CC1 | inconclusive: 20.6 µM [inhibitor, single point] |  |
| Cc1ccc(-c2nc(C(=O)NCCCN(C)C)cc3c2[nH]c2ccccc23)cc1 | inconclusive: 18.4 µM [inhibitor, single point] |  |
| CC(C)Nc1nc(NC2CCCC2)nc(N2CCOCC2)n1 | inconclusive: 23.1 µM [inhibitor, single point] |  |
| CCn1c(=O)n(CC)c2cc(N3CCCCC3)c(NC(=O)Nc3cc(C)cc(C)c3)cc21 | active: 5.8 µM |  |
| COc1ccc(OCC(O)CN2CCN(Cc3ccc4c(c3)OCO4)CC2)cc1 (stereo not drawn) |  | inactive: -2.39% |
| CC(C)Nc1cc(C(F)(F)F)nc(-c2ccccn2)n1 | active: 18.4 µM |  |
| CCOC(=O)C1=CCN(S(=O)(=O)c2cccc(Cl)c2)C1c1ccc(F)cc1 (stereo not drawn) | inconclusive: 23.1 µM [inhibitor, single point] |  |
| CCOCCCNc1nc(C)nc2c1nnn2Cc1c(F)cccc1Cl | inconclusive: 25.9 µM [inhibitor, single point] |  |
| O=C(NCCNc1ccc(Cl)cc1[N+](=O)[O-])c1cccnc1 |  | inactive: -16% |
| N#CCSc1nc(-c2ccccc2)nc2ccc(F)cc12 |  | inactive: -12% |
| O=C(NC1CCCc2ccccc21)C1CCN(S(=O)(=O)c2cnc[nH]2)CC1 (stereo not drawn) |  | inactive: -9.96% |
| Cc1ccccc1C(=O)Nc1ccc(O)c2c(=O)cc(-c3ccccc3Cl)oc12 | inconclusive: 23.1 µM [inhibitor, single point] |  |
| CCCCCC(=O)Nc1cc2[nH]c(=O)cc(COC)c2cc1C |  | inactive: -14.7% |
| Cc1ccc(O)c(C(=O)c2cnn(-c3ccccc3)c2)c1 | active: 7.31 µM |  |
| O=C(Nc1ccn(Cc2ccccc2F)n1)c1ccc(COc2ccc(Cl)cc2Cl)o1 | inconclusive: 29.1 µM [inhibitor, single point] |  |
| COc1ccc(C(=O)NCCn2cc(SCC(=O)Nc3cccc(C)c3)c3ccccc32)cc1 | active: 16.4 µM |  |
| Cc1ccc(NC(=O)Cn2cnc3c(nnn3Cc3ccc(F)cc3)c2=O)cc1 | inconclusive: 29.1 µM [inhibitor, single point] |  |
| O=C(Cn1nnc(-c2ccc(CN3CCOCC3)cc2)n1)N1CCCc2ccccc21 | inconclusive: 25.9 µM [inhibitor, single point] |  |
| Cc1ccc(-c2nc3ccccc3s2)cc1NC(=S)NC(=O)c1cccc2ccccc12 | inconclusive: 23.1 µM [inhibitor, single point] |  |
| CCCC(=O)N1CCCC1(C)C(=O)Nc1ccc2cn[nH]c2c1 (stereo not drawn) |  | inactive: -27.1% |
| COc1cc(OC)c(NS(=O)(=O)c2cccc(C(=O)OCC(=O)NCC3CCCO3)c2)cc1Cl (stereo not drawn) |  | inconclusive: -34.4% [inhibitor] |
| O=C(O)CC(c1ccccc1)N1C(=O)c2cccc([N+](=O)[O-])c2C1=O (stereo not drawn) |  | inactive: -1.02% |
| CCCCNc1c(-c2cccnc2)nc2nc(C)cc(C)n12 | inconclusive: 20.6 µM [inhibitor, single point] |  |
| CSc1ccccc1OCc1cc(C(=O)NCCn2ccnc2C)no1 |  | inactive: 14.6% |
| O=c1c2cnn(-c3ccccc3)c2nc(-c2cccs2)n1-c1ccc(Br)cc1 | inconclusive: 1.64 µM [inhibitor, partial curve] |  |

| Compound | Potency | activity change, negative = growth inhibition |
| --- | --- | --- |
| NNC(=O)CS(=O)(=O)c1ccc(Cl)cc1 |  | inactive: 0.947% |
| CCOc1ccc(OCCC(=O)OCC(=O)Nc2ccc(N3CCOCC3)cc2)cc1 |  | inconclusive: -30% [inhibitor] |
| O=C(O)/C=C/c1ccc(-n2ccnc2)cc1 |  | inactive: 13.9% |
| Cc1ccc(S(=O)(=O)N2CCN(CC(=O)N/N=C/c3ccc(Br)s3)CC2)cc1 | inconclusive: 29.1 µM [inhibitor, single point] |  |
| Cc1ccc(C)c(OCCC(=O)OCC(=O)NC2CCCC2)c1 |  | inactive: 1.79% |
| CCOC(=O)C1CCN(C(=O)Cn2c(=O)cc(C)c3c(C)nn(C)c32)CC1 | active: 25.9 µM |  |
| COc1ccc(NC(=S)NCCc2c[nH]c3ccccc23)cc1 | inconclusive: 25.9 µM [inhibitor, single point] |  |
| Cc1cc(N2CCCCC2)nc2ccc(NC(=O)c3ccc(Br)o3)cc12 | inconclusive: 29.1 µM [inhibitor, single point] |  |
| CCN(CC)S(=O)(=O)c1ccc(NC(=O)c2cccs2)cc1 |  | inactive: -9.21% |
| CC(=O)Nc1ccc(S(=O)(=O)N(C)CC(=O)N2CCN(C(=O)c3ccco3)CC2)cc1 |  | inactive: 9.56% |
| Cc1ccc(C)n1-c1c(C(=O)NCCC(C)C)sc2ncccc12 | active: 16.4 µM |  |
| CCOC(=O)N1CCN(C(=O)CN2C(=O)/C(=C\c3cccc(OC)c3)SC2=S)CC1 | active: 7.94 µM |  |
| OCCN1CCN(CCCc2c3c(cc4c2CCC4)CCC3)CC1 | inconclusive: 23.1 µM [inhibitor, single point] |  |
| OC(COc1ccc(Br)cc1)CN1CCN(c2ccccc2)CC1 (stereo not drawn) | inconclusive: 29.1 µM [inhibitor, single point] |  |
| COc1ccccc1NC(=O)c1cnc(SCC(=O)NCCc2ccccc2)n(C)c1=O | active: 16.4 µM |  |
| CN(Cc1cccc(C(F)(F)F)c1)C(=O)C1CCC(=O)N(CC2CCCCC2)C1 (stereo not drawn) | inconclusive: 29.1 µM [inhibitor, single point] |  |
| COc1cc(-c2nc3nc[nH]n3c2Nc2ccc(C(C)C)cc2)ccc1O | active: 23.1 µM |  |
| Cc1ccc(-c2c[nH]c(=S)n2-c2ccccc2)cc1 |  | inconclusive: -31.4% [inhibitor] |
| OC[C@@H]1CN(Cc2ccc(Cl)cc2)C[C@H](n2cnc3c(NC4CC4)ncnc32)O1 | inconclusive: 25.9 µM [inhibitor, single point] |  |
| CC(C)c1cc(Cn2c3ccccc3c(=O)n2C(C)CBr)on1 (stereo not drawn) | inconclusive: 13 µM [inhibitor, partial curve] |  |
| C=C1NN(C(C)C(=O)O)C(=O)N1c1ccc(OCc2ccccc2)cc1 (stereo not drawn) |  | inactive: -22.7% |
| CCOc1cc(C(=O)Nc2cc(C)ccc2C)ccc1OCC(=O)N1CCCCC1 | inconclusive: 29.1 µM [inhibitor, single point] |  |
| CC(C)Sc1nc(NCc2ccco2)c2c3c(sc2n1)COC(C)(C)C3 | active: 25.9 µM |  |
| COc1ccc2oc(C(=O)N3CCN(C/C=C/c4ccccc4)CC3)c(C)c2c1 |  | inactive: -16.5% |
| Clc1ccccc1-c1nn2c(-c3ccncc3)nnc2s1 | active: 16.4 µM |  |

| Compound | Potency | activity change, negative = growth inhibition |
| --- | --- | --- |
| COC(=O)c1ccccc1COc1cccn2c(N(C)CC3CC3)c(C)nc12 | inconclusive: 20.6 µM [inhibitor, single point] |  |
| O=C(NCCc1csc(-c2ccccc2)n1)c1ccc(Br)o1 | inconclusive: 29.1 µM [inhibitor, single point] |  |
| Fc1cccc(Nc2nc3ccccc3n3nnnc23)c1 | inconclusive: 3.66 µM [inhibitor, single point] |  |
| Clc1ccc(C(c2ccccc2)N2CCN(c3ccccn3)CC2)cc1 (stereo not drawn) | inconclusive: 29.1 µM [inhibitor, single point] |  |
| COc1ccc2[nH]c(C(=O)N3CCC(n4nccc4NC(=O)C4CC4)CC3)c(C)c2c1 |  | inactive: -14.1% |
| Cc1ccc(CS(=O)(=O)CCC(=O)NCc2cccs2)cc1 | inconclusive: 4.61 µM [inhibitor, partial curve] |  |
| COc1ccc(CCCNC(=O)C2Cc3c(-c4ccccc4)ccnc3O2)cc1 (stereo not drawn) | active: 6.51 µM |  |
| CCOc1ccc(OCc2cccc(C(=O)N(CC)CC)c2)cc1 | active: 20.6 µM |  |
| CC1(C(=O)NS(=O)(=O)c2ccc(Cl)cc2)CCN1C(=O)Cc1ccsc1 (stereo not drawn) |  | inactive: -17.7% |
| COc1ccc2c(C)cc(N3CCCCCC3)nc2c1 | inconclusive: 29.1 µM [inhibitor, single point] |  |
| COc1ccc(-c2cc(=O)oc(-c3cccc(C)c3)n2)cc1 | inconclusive: 29.1 µM [inhibitor, single point] |  |
| COC(=O)c1ccc(N2CCOCC2)c(NC(=O)c2cccnc2)c1 |  | inactive: 18.9% |
| O=S1(=O)CCOC[C@H](CC2CCCCC2)N1Cc1ccccc1F | inconclusive: 28.2 µM [inhibitor, single point] and inconclusive: 20.6 µM [inhibitor, single point] |  |
| CC(C)Oc1cccc(C(=O)NC(=S)Nc2cccc(C(F)(F)F)c2)c1 | inconclusive: 32.6 µM [inhibitor, partial curve, poor fit] |  |
| CC1CC(=O)Nc2ccccc2N1C(=O)COc1ccc2cc(Br)ccc2c1 (stereo not drawn) | inconclusive: 18.4 µM [inhibitor, single point] |  |
| COCCNc1nc(-c2cc(F)ccc2C)c2sc(-c3ccccc3)cc2n1 | active: 25.9 µM |  |
| COc1ccc(-c2cc(C(=O)N3CCN(c4ncccn4)CC3)c3ccccc3n2)cc1 | inconclusive: 29.1 µM [inhibitor, single point] |  |
| CSc1ccc(Cn2c(C)c(C(=O)NCc3ccc(Cl)c(Cl)c3)sc2=O)cc1 | inconclusive: 29.1 µM [inhibitor, single point] |  |
| CCN(CC)C(=O)c1ccc2c(=O)n(Cc3cccc(Br)c3)c(=S)[nH]c2c1 | active: 23.1 µM |  |
| CCn1c(Cn2nnc(-c3ccccc3)n2)nnc1SCC(=O)N1CCOCC1 |  | inactive: -3.35% |
| CC(SC(C)C(=O)NN=Cc1cccc(F)c1)C(=O)NN=Cc1cccc(F)c1 (stereo not drawn) | inconclusive: 20.6 µM [inhibitor, single point] |  |
| CC(=O)N1c2ccc(S(=O)(=O)N3CCCC3)cc2CC1C(=O)Nc1cc(C)cc(C)c1 (stereo not drawn) | inconclusive: 20.6 µM [inhibitor, single point] |  |
| Cc1ccc(N(CC(O)COCc2ccco2)S(=O)(=O)c2ccc(C)cc2)cc1 (stereo not drawn) | inconclusive: 29.1 µM [inhibitor, single point] |  |
